Experimental findings from paper PMC4336329 (PLoS ONE, 2015) are described below.

SMILES strings stand for the structures. In all, about 310,000 compounds went through this assay and about 2,200 (0.71%) showed an effect of 50% or more. The effect is printed as a negative number. Some of the results follow.

Sequence of human ether-à-go-go-related gene (hERG) potassium channel (Q12809 whole entry, looked up): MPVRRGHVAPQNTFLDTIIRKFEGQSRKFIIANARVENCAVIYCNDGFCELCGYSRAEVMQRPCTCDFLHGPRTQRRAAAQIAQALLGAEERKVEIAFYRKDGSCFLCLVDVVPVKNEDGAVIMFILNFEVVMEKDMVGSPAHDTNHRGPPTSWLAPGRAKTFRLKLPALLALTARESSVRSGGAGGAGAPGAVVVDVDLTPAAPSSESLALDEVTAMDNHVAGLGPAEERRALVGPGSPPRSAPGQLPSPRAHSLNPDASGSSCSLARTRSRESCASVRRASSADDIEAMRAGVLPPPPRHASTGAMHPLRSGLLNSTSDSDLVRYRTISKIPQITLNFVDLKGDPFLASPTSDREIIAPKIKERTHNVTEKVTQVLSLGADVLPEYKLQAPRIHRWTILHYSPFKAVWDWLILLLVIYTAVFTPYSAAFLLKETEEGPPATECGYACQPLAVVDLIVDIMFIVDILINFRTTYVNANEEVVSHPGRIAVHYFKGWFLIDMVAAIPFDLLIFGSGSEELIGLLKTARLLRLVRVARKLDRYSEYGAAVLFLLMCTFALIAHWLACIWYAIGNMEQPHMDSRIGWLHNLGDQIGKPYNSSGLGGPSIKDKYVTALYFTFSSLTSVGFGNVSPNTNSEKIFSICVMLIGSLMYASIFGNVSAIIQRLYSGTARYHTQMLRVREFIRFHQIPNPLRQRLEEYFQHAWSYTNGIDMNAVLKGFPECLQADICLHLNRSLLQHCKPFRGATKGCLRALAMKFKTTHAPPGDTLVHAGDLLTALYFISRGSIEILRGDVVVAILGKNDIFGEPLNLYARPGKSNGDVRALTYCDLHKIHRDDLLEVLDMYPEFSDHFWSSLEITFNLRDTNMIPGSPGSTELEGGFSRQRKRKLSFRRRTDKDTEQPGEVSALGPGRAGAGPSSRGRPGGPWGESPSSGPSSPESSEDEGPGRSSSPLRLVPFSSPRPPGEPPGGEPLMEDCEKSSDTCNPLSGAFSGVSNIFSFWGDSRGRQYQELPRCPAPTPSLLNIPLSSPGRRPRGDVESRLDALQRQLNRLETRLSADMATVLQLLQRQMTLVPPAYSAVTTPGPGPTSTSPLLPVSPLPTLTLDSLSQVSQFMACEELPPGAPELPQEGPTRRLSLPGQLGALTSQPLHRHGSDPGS

The test addresses human ether-à-go-go-related gene (hERG) potassium channel (human, UniProt Q12809). The test is described as follows: primary screen, population patch clamp on CHO cells stably expressing hERG.
As for `Cc1cnc(NC(=O)c2cc3ccccc3o2)s1`, the “hERG current change (%, negative = inhibition) at 1uM” value is 15.1%.
For the compound `CCc1cccc(NC(=O)CSCc2nc3sc(C)c(C)c3c(=O)[nH]2)c1`, the “hERG current change (%, negative = inhibition) at 1uM” value is reported as 22.7%.
For the compound `CCOC(=O)Cn1cc(C=O)c2ccccc21`, the “hERG current change (%, negative = inhibition) at 1uM” value worked out at 5.97%.
For `CCOC(=O)c1ccc(NC(=O)Oc2ccccc2)cc1` the value was 1.96%; for `CC(c1c(O)c2ccccc2[nH]c1=O)C1(C)CCC(O)C(C)(C)O1` (stereo not drawn), -0.766%.
`CCC(=O)N1CCc2cc(S(=O)(=O)CCC(=O)NCc3cccs3)ccc21`: the “hERG current change (%, negative = inhibition) at 1uM” value was determined as 6.49%.
For the compound `Nc1ccc(C23CC4CC(CC(O)(C4)C2)C3)cc1`, the “hERG current change (%, negative = inhibition) at 1uM” value is reported as 2.73%.
In the case of `O=C(CCN1C(=O)c2ccccc2C1=O)C1=NN[C@@H]2C(=O)N(c3cccc(F)c3)C(=O)[C@H]12`, the “hERG current change (%, negative = inhibition) at 1uM” value stood at 17.5%.
In the case of `Cc1ccc(NC(=O)c2cc(-c3cccc(O)c3)on2)cc1C`, the “hERG current change (%, negative = inhibition) at 1uM” value was 11.2%.
In the case of `O=C(CC1CCCCC1)NC1CCCC1`, the “hERG current change (%, negative = inhibition) at 1uM” value was determined as 0.54%.
As for `CC(=O)NC12CC3CC(C1)CC(C(=O)N(C)CC(=O)Nc1ccc(F)c(F)c1F)(C3)C2`, the “hERG current change (%, negative = inhibition) at 1uM” value is -1.16%.
As to `O=[N+]([O-])/C=C/c1cn(Cc2ccccc2)c2ccccc12`, the “hERG current change (%, negative = inhibition) at 1uM” value stood at 5.14%.
For the compound `Cc1ccc(N=CC2=C(O)CC(c3ccco3)CC2=O)cc1` (stereo not drawn), the “hERG current change (%, negative = inhibition) at 1uM” value is given as 0.684%.
Turning to `Cc1ccc(-c2nc(SCC(=O)NCCN3C(=O)CSC3=O)[nH]c2-c2ccc(C)cc2)cc1`, the “hERG current change (%, negative = inhibition) at 1uM” value is 4.85%.
With `COc1ccc(Br)cc1CN1CCSCC1`, the “hERG current change (%, negative = inhibition) at 1uM” value amounted to 16.5%.
On to `CCn1ccnc1CN(C)Cc1nc(Cc2cccc(C(F)(F)F)c2)no1`, for which the “hERG current change (%, negative = inhibition) at 1uM” value is -13%.
Under `CC1CCCCN1CC(=O)c1ccc2cc[nH]c2c1` (stereo not drawn) stands 14.9%; under `CC(C)c1c(Cl)c(O)c(-c2ccccc2)c(=O)n1-c1ccc(F)cc1`, 16%; under `Cc1cc(NC(=O)c2ccc(COc3ccccc3Cl)o2)no1`, 11.6%.
`CCN1CCCC1CNC(=O)c1ccc(N2CCOCC2)c(NS(=O)(=O)c2ccc(OC)cc2)c1` (stereo not drawn): the “hERG current change (%, negative = inhibition) at 1uM” value turned out to be 2.19%.
For `CCOC(=O)C1=C2NC(=O)c3ccccc3N2C(=O)C1` the value was -1.14%; for `O=C(NCc1ccc2c(c1)OCO2)C1CC(=O)N(c2ccc(O)cc2)C1` (stereo not drawn), 5.85%; for `C/C(=C\c1ccccc1)CN1CCC(C(=O)N2CCCCC2)CC1.O=C(O)C(=O)O`, -5.87%.
With `CCC(CC)NC(=O)c1cccc(Oc2ccccc2)c1`, the “hERG current change (%, negative = inhibition) at 1uM” value came to 6.84%.
For `CC(C)Nc1nc(NC(C)C)nc(SCC(N)=O)n1`, the “hERG current change (%, negative = inhibition) at 1uM” value turned out to be 3.45%.
For `O=C(NCc1cccnc1)c1nc(-c2ccccc2)n(-c2ccccc2)n1`, the “hERG current change (%, negative = inhibition) at 1uM” value was 9.32%.
Take `O=C(COC(=O)C1=Cc2ccccc2OC1)NCc1ccco1`: the “hERG current change (%, negative = inhibition) at 1uM” value is 17.8%.
For `O=C(CNc1ccc2c(c1)OCO2)N/N=C\c1ccccc1Cl`, the “hERG current change (%, negative = inhibition) at 1uM” value worked out at 12%.
Consider `CCOc1cccc2cc(C(C)=O)oc12`, for which the “hERG current change (%, negative = inhibition) at 1uM” value was determined as 16.3%.
`CC(=O)c1nnn(-c2cccc(C#N)c2)c1C`: the “hERG current change (%, negative = inhibition) at 1uM” value is recorded as 9.82%.
As for `Cc1ccc(S(=O)(=O)Nc2nccs2)cc1[N+](=O)[O-]`, the “hERG current change (%, negative = inhibition) at 1uM” value is listed as 16.4%.
Under `CN1CCC(Oc2ccc(Sc3ccccc3)cc2)CC1.Cl` stands -4.48%; under `COc1ccc(CNS(=O)(=O)c2ccc3c(c2)CC(C)N3C(=O)C2CC2)cc1` (stereo not drawn), 15.1%.
`CC(NC(=O)c1ccc(F)cc1)C1CC2CCC1C2` (stereo not drawn): the “hERG current change (%, negative = inhibition) at 1uM” value is given as 5.29%.
Under `COC(=O)c1sccc1S(=O)(=O)Nc1ccc(N2CCCCC2)cc1` stands 10.2%; under `CCOC(=O)C1(Cc2ccccc2C)CCCN(Cc2cc(OC)c(O)c(OC)c2)C1` (stereo not drawn), -2.23%.
With `COc1ccc(-n2nnc3c(SC(C(C)=O)C(=O)N(C)C)ncnc32)cc1` (stereo not drawn), the “hERG current change (%, negative = inhibition) at 1uM” value is recorded as 10.2%.
As for `O=C(CN1CCC(n2nnc3cc(F)ccc32)CC1)N1CCc2ccccc2C1`, the “hERG current change (%, negative = inhibition) at 1uM” value was -24.7%.
For `CCCN1CCN(CCCNC(=O)Cn2nc(-c3ccc(Cl)cc3)ccc2=O)CC1` the value was -25%; for `Cc1cc(-c2ccc(/C=N/n3cnnc3)o2)c([N+](=O)[O-])cc1C`, 9.45%.
With `CC(=O)NO`, the “hERG current change (%, negative = inhibition) at 1uM” value was determined as 10.3%.
For `O=C(O)c1ccc(-c2ccc(Cl)cc2Cl)o1` the value was -5.82%.
On to `Cn1c(=O)n(C)c2cc(NC(=O)COc3ccc(F)cc3F)ccc21`, for which the “hERG current change (%, negative = inhibition) at 1uM” value amounted to 8.63%.
In the case of `O=S(=O)(Nc1ncnc2sc3c(c12)CCC3)c1ccc(Cl)s1`, the “hERG current change (%, negative = inhibition) at 1uM” value is 12.5%.
As for `CN1CCC(N(C)S(=O)(=O)c2ccc(NC(=O)COc3ccc(F)cc3)cc2)CC1`, the “hERG current change (%, negative = inhibition) at 1uM” value was determined as 3.82%.
On to `Cc1cccc(C)c1OC1(c2ccccc2)OC(=O)c2ccccc21` (stereo not drawn), for which the “hERG current change (%, negative = inhibition) at 1uM” value is on record as 5.98%.
Turning to `O=C(c1ccco1)c1cn(Cc2ccccc2)c2ccccc12`, the “hERG current change (%, negative = inhibition) at 1uM” value came out at 8.53%.
In the case of `O=C(O)c1ccccc1-n1ncc2c1/C(=C/c1ccc(Cl)cc1)CC2`, the “hERG current change (%, negative = inhibition) at 1uM” value is listed as 22.6%.
`CN1C(=O)C(C)(C)N(C(=O)c2cccc([N+](=O)[O-])c2)c2ccccc21`: the “hERG current change (%, negative = inhibition) at 1uM” value turned out to be 10.8%.
Turning to `Cc1ccc(C(=O)N2c3ccccc3NC(=O)C2C)cc1` (stereo not drawn), the “hERG current change (%, negative = inhibition) at 1uM” value turned out to be 5.63%.
Under `Cc1cc(=O)n2[nH]nnc2n1` stands -16.2%.
Turning to `CC1CCC2(CC1)NC(=O)N(CC(=O)N1CCN(S(=O)(=O)c3ccccc3)CC1)C2=O` (stereo not drawn), the “hERG current change (%, negative = inhibition) at 1uM” value is given as 4.72%.
Under `Cc1ccc(C2(c3ccc(C)cc3)CC2C(=O)NC(C)C)cc1` (stereo not drawn) stands 13.8%; under `O=C(COc1ncnc2ccccc12)Nc1cc(S(=O)(=O)N2CCOCC2)ccc1Cl`, 7.41%.
In the case of `CCn1c(SCC(=O)NC2CCCCC2)nnc1-c1cccs1`, the “hERG current change (%, negative = inhibition) at 1uM” value was 6.6%.
With `Cc1ccc(S(=O)(=O)Nc2nc(C)cc(N/N=C/c3ccc(O)cc3)n2)cc1`, the “hERG current change (%, negative = inhibition) at 1uM” value is recorded as 14.1%.
Consider `Cc1c(C(=O)OCCOC(C)C)[nH]c2c1C(=O)CC(c1ccco1)C2` (stereo not drawn), for which the “hERG current change (%, negative = inhibition) at 1uM” value is recorded as 1.06%.
Regarding `c1cncc(-c2noc(-c3ccc4ccccc4c3)n2)c1`, the “hERG current change (%, negative = inhibition) at 1uM” value was found to be 16.1%.
Under `c1ccc2c(SCc3cn4ccccc4n3)nncc2c1` stands -0.835%.
Regarding `CN(Cc1nc2c(s1)CCCC2)C(=O)CCc1nnc(-c2ccc3c(c2)OCO3)o1`, the “hERG current change (%, negative = inhibition) at 1uM” value was found to be 9.88%.
As for `COc1ccc(S(=O)(=O)N2CCOC2CNC(=O)C(=O)NCCc2ccccc2)cc1` (stereo not drawn), the “hERG current change (%, negative = inhibition) at 1uM” value is recorded as 4.01%.
On to `O=C(CCCn1c(=O)c2ccccc2n(Cc2cccc(F)c2)c1=O)NC1CCN(Cc2ccccc2)CC1`, for which the “hERG current change (%, negative = inhibition) at 1uM” value is -21.6%.
Take `C/C(=N/NC(=O)Cc1cccs1)c1ccco1`: the “hERG current change (%, negative = inhibition) at 1uM” value turned out to be 6.93%.
With `O=C(Nc1ccc(F)cc1)c1sc2cc(C(F)(F)F)cnc2c1-c1cccs1`, the “hERG current change (%, negative = inhibition) at 1uM” value was determined as 7.93%.
Under `CC1(C)CC(=O)C(=Cc2cn(CCC#N)nc2-c2ccc(F)cc2)C(=O)C1` stands 8.3%; under `CCOC(=O)C1CN(S(=O)(=O)c2ccccc2)C1`, 8.96%; under `O=C(NCc1cccs1)C1CC(O)CN1C(=O)Nc1ccccc1` (stereo not drawn), 16.6%.
In the case of `CCOC(=O)N1CCC(N2C(=O)c3ccc(C(=O)O)cc3C2=O)CC1`, the “hERG current change (%, negative = inhibition) at 1uM” value is 5.66%.
Take `Nc1cc(N2CCNCC2)c([N+](=O)[O-])cc1Cl`: the “hERG current change (%, negative = inhibition) at 1uM” value is on record as 12.7%.
Under `COc1ccc(N(CC(=O)Nc2cccc([N+](=O)[O-])c2C)S(C)(=O)=O)cc1OC` stands 5.09%.
For the compound `CN(C(=O)c1cc2ccccc2oc1=O)C1(C)CCS(=O)(=O)C1` (stereo not drawn), the “hERG current change (%, negative = inhibition) at 1uM” value is 9.53%.
Regarding `O=C(NNC(=O)c1ccccc1[N+](=O)[O-])Nc1ccc(Cl)cc1`, the “hERG current change (%, negative = inhibition) at 1uM” value is 16.3%.
Turning to `CC(C)Oc1ccc(C(=O)NC2CCSc3ccccc32)cc1` (stereo not drawn), the “hERG current change (%, negative = inhibition) at 1uM” value is on record as 17.8%.
Consider `O=C(Cc1cccs1)Nc1nnc(SCc2ccc(Br)cc2)s1`, for which the “hERG current change (%, negative = inhibition) at 1uM” value was 5.02%.
For `Cc1ccc(S(=O)(=O)N/N=C\c2cn(CC(N)=O)c3ccccc23)cc1C` the value was 16.6%; for `CSc1cccc(CN2CCCC(CNC(=O)c3ccco3)C2)c1` (stereo not drawn), -48.1%; for `O=C(COC(=O)/C=C/c1ccc(F)cc1)Nc1cc(C(F)(F)F)ccc1N1CCOCC1`, -14.2%.
In the case of `COC(=O)c1c(C)[nH]c(C(=O)/C=C/c2ccc(C)cc2)c1C`, the “hERG current change (%, negative = inhibition) at 1uM” value was found to be 7.83%.
For `Cc1ccc2nc(N3CCN(C(=O)c4cccs4)CC3)c(C#N)cc2c1` the value was -51.3%; for `CC(=O)Nc1ccc(N(C(=O)CNC(=O)c2ccco2)C(C(=O)NC2CCCC2)c2ccco2)cc1` (stereo not drawn), 2.54%.
Turning to `O=C1CN(c2ccccc2)C(=S)N1C(=O)c1ccc(Br)cc1`, the “hERG current change (%, negative = inhibition) at 1uM” value is on record as 10.7%.
Turning to `O=C(NCc1cc(C(F)(F)F)cc(C(F)(F)F)c1)C12CN(Cc3ccccc3)CC1C(c1cccc([N+](=O)[O-])c1)=NO2` (stereo not drawn), the “hERG current change (%, negative = inhibition) at 1uM” value is given as -0.505%.
For `CCOC(=O)N1CCN(S(=O)(=O)c2ccc(C)cc2)C1c1ccccc1` (stereo not drawn), the “hERG current change (%, negative = inhibition) at 1uM” value amounted to 1%.
Consider `CC(C)c1ccc(NC(=O)CN2C(=O)c3ccccc3S2(=O)=O)cc1`, for which the “hERG current change (%, negative = inhibition) at 1uM” value is 8.27%.
Under `CCCOC(=O)c1c(N)n(Cc2cccs2)c2nc3ccccc3nc12` stands -8.02%; under `CC(=O)Oc1ccc(N(C(C)=O)S(=O)(=O)c2ccc(C)cc2C)c2ccccc12`, 16.6%.
For the compound `O=C(CNC(=O)c1ccco1)Nc1ccc(OC(F)F)cc1`, the “hERG current change (%, negative = inhibition) at 1uM” value turned out to be 12%.
Under `Cc1ccc2cc(S(=O)(=O)NCCC(=O)O)ccc2c1` stands 3.4%.
Take `C/C=C\C(=O)Nc1cccc(C2=NOC3(C2)C[C@@H](C(N)=O)N(C(=O)C2(C)CC2)C3)c1` (stereo partly drawn): the “hERG current change (%, negative = inhibition) at 1uM” value is on record as 13.7%.
Under `COc1ccc2[nH]c(=O)c(CN(C(=O)c3ccco3)C(C)C)cc2c1` stands 0.707%.
